Test results: publication PMC4336329 (PLoS ONE, 2015)
About 14,000 (4.5%) of roughly 310,000 compounds showed an effect of 50% or more. Effects have a minus sign here. This is one part of the list.

biological target: human ether-à-go-go-related gene (hERG) potassium channel (human, UniProt Q12809); test: primary screen, population patch clamp on CHO cells stably expressing hERG
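Note: peak tail current of the secondary pulse compared with the same well before compound.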

human ether-à-go-go-related gene (hERG) potassium channel, sequence (Q12809 whole entry, looked up): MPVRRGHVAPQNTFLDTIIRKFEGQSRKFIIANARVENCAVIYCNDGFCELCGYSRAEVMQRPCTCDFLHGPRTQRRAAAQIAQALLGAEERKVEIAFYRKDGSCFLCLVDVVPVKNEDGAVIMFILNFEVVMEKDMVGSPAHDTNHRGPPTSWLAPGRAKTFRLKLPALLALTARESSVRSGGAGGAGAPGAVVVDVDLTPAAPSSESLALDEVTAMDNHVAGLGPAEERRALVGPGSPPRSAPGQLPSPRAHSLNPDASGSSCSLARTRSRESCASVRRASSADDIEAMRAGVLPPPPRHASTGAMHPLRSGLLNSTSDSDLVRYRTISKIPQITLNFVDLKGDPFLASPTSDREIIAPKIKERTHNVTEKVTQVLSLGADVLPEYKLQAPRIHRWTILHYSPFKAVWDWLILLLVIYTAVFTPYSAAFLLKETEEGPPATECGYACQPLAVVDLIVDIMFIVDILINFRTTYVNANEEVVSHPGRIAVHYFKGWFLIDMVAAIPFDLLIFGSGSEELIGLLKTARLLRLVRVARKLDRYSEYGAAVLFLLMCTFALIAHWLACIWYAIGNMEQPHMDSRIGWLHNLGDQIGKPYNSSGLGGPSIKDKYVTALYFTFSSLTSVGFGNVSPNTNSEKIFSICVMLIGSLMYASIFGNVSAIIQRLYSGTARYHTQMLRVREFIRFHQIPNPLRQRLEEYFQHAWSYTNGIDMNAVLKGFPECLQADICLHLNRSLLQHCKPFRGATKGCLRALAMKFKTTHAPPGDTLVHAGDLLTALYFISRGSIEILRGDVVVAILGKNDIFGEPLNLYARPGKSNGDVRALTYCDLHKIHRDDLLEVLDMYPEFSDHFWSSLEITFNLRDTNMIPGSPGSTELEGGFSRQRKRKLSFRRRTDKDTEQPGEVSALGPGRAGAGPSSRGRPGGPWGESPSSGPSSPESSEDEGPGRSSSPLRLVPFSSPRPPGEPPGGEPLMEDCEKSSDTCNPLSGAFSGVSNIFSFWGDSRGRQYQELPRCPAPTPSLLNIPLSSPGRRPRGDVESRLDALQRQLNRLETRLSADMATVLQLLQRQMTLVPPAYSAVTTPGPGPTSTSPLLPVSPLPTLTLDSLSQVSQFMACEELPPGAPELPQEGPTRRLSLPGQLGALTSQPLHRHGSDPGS

SMILES | hERG current change (%, negative = inhibition) at 10uM [%]
CC(=O)N(CCC(c1ccco1)C(C)C)Cc1ccc(OC(C)C)cc1 (centres unmarked) | -9.13
CCOC(=O)C1CCN(C(=O)Cn2cnc3sc(C)c(S(=O)(=O)N4CCOCC4)c3c2=O)CC1 | -14
CCOc1ccc(N(C(=O)c2ccccc2Cl)C2=NC(C)(C)CS2)cc1 | -6.11
CCc1ccccc1N(CC)C(=O)CCc1nc(-c2ccc(C)cc2)no1 | -6.03
O=C(O)Cn1cc(/C=C2\SC(=O)N(c3ccccc3)C2=O)c2ccccc21 | 17.6
Cc1cccc2cc(CNCC3CCCO3)c(Cl)nc12 (centres unmarked) | 21.9
CC1CCCCN1C(=O)c1c(Cl)cnn1C (centres unmarked) | 4.61
O=C(NCC1CCCO1)/C(=C/c1cn(-c2ccccc2)nc1-c1cccnc1)NC(=O)c1ccccc1 (centres unmarked) | -38.1
Cc1nn(CC(=O)NCCN2CCOCC2)c(=O)c2cc3sccc3n12 | 23.6
O=C(Oc1ccc(OC(=O)C2CCC2)cc1)C1CCC1 | 0.929
CN(C(=O)CSc1ccc(S(=O)(=O)N2CCCCC2)cn1)c1ccccc1 | -31.7
CCOC(=O)c1c(CN2CCCCC2)oc2ccc(OC)cc12 | -61.6
Cc1oc(-c2cc(F)ccc2F)nc1CN1CCN(c2ncnc3ccccc23)CC1 | -43.6
CCSc1nc2c(c(=O)n1CC)SC(C)C2 (centres unmarked) | -1.82
COc1ccc(N2CCN(C3CC(=O)N(C)C3=O)CC2)cc1 (centres unmarked) | 17.4
CCOP(=O)(OCC)C(Cc1ccccc1)NC(C)=O (centres unmarked) | 5.04
Cc1ccc(C(=O)/C=C/c2cc(C#N)n(C)c2C)cc1 | -23
COc1cc(CN(C)Cc2ccccc2)cc(OC)c1O | -9.78
CC(C)(C)c1ccc(C(=O)Nc2cccc(-n3cnnn3)c2)cc1 | -44.4
COc1ccc(/C=C2\SC(=O)N(CCC(=O)N(C)C3CCS(=O)(=O)C3)C2=O)cc1 (centres unmarked) | -7.26
COc1ccc(S(=O)(=O)N(CC(C)C)C2CCS(=O)(=O)C2)cc1OC (centres unmarked) | 4.62
NS(=O)(=O)c1ccc(CCNC(=O)CCNC(=O)c2ccco2)cc1 | 23
CC(=O)c1ccc(NC(=O)CSc2nnc(-c3ccncc3)n2C2CC2)cc1 | -5.46

SMILES | hERG current change (%, negative = inhibition) at 10uM [%]
CCc1nnc(NC(=O)C2CCCN2S(=O)(=O)c2ccccc2)s1 (centres unmarked) | 14.8
CCC1=NN2C(=N)/C(=C/c3ccc(OS(=O)(=O)c4ccc(C)cc4)c(OC)c3)C(=O)N=C2S1 | -11.6
O=C(Oc1ccc(C(=S)N2CCOCC2)cc1)c1cccc([N+](=O)[O-])c1 | 9.24
COc1cccc(C2C(C#N)=C(N)Oc3cc(C)oc(=O)c32)c1OC (centres unmarked) | 1.46
O=C(c1ccco1)N1N=C(c2cccs2)CC1c1cc([N+](=O)[O-])ccc1O (centres unmarked) | 7.51
CCN(C(=O)COC(=O)c1cn(-c2ccccc2)nc1-c1ccccc1)C1CCS(=O)(=O)C1 (centres unmarked) | -75.9
O=C(NC(=S)Nc1ccc2c(c1)OCO2)c1ccc(Cl)cc1 | 3.42
c1ccc(C2=NN(c3ccccc3)CC2)cc1 | -5.39
CCC(C(=O)Nc1ccccc1C(=O)N1CCOCC1)N1C(=O)c2ccccc2C1=O (centres unmarked) | 3.69
COc1ccc(OCC(O)CNCCNc2nccc(C(F)(F)F)n2)cc1 (centres unmarked) | -23.3
CC(=O)N(C)c1ccc(NC(=O)c2cnn(C)c2)cc1 | 3.39
CCOc1ccc2nc(SCC(=O)Nc3ccc4c(c3)OCO4)sc2c1 | 2.95
CN(C)c1ccc(N=Nc2ccc(S(=O)(=O)[O-])cc2)c2ccccc12.[Na+] | 8.94
CCCC(=O)Nc1c(-c2ccc(OC)cc2)c(=O)c2ccccc2n1C | 10.3
CC(C)(C)NC(=O)CN1C(=O)NC(c2ccccc2)(c2ccccc2)C1=O | 19.4
CC(C)Nc1nnc(SCC(=O)NCc2ccc3c(c2)OCO3)s1 | 17.2
COc1cccc(C(=O)COC(=O)CCC(=O)NC2CCCCC2)c1 | 10.3
COc1ccccc1NC(=O)CSc1nnc(Cn2cnc3ccccc32)o1 | 5.1
CCn1c(/C=C2\C(=O)N(C(C)C)c3ccccc32)nc2ccccc2c1=O | -3.14
O=C(c1ccccc1)c1cc(-c2ccccn2)c(N2CCOCC2)s1 | -29.4
CCCCOc1ccc(S(=O)(=O)N2CCN(C)CC2)cc1 | -0.958
c1ccc(N2CCN(CCc3nnc4n3CCCCC4)CC2)cc1 | -5.3
N#C/C(=C\c1ccc(O)c(O)c1)C(=O)c1ccc(O)c(O)c1 | 10.6

SMILES | hERG current change (%, negative = inhibition) at 10uM [%]
Cc1cc(C)c(S(=O)(=O)n2c([N+](=O)[O-])cnc2C)cc1C | 4.29
COc1ccc(NC(=O)CSc2nnc(-c3ccccc3)n2Cc2ccco2)cc1OC | -34.6
CCn1c(CCn2c3ccccc3c3ccccc32)n[nH]c1=S | 0.765
CN(C(=O)C1CCOC1)c1nnc(-c2cnccn2)s1 (centres unmarked) | 11.1
O=C(Cc1ccc([N+](=O)[O-])cc1)Nc1ccc(C(=O)N2CCOCC2)cc1 | 11.9
Cc1c(-c2ccco2)[n+](=O)c2c(n1[O-])CCCCC2 | 10.9
O=C1c2ccccc2C(=O)N1S(=O)(=O)c1ccccc1 | 8.58
CN1Cc2ccccc2N(CC(=O)NCc2ccccc2)C1=O | 9.34
COc1ccc(-n2c(C)cc(C(=O)COC(=O)c3ccc(O)cc3O)c2C)cc1 | 10.7
Fc1cccc(Cl)c1Cn1nnc2c(NCc3ccncc3)ncnc21 | -1.95
O=C(NC(=S)NCc1cccnc1)c1cc(Br)ccc1Cl | 18.2
CC1(C(=O)N/N=C/c2ccc([N+](=O)[O-])o2)CC1(Br)Br (centres unmarked) | -17
COC(=O)COc1cccc(-n2cnnn2)c1 | 2.56
CCCc1cc(C(=O)N2CCCC(CO)(CCCc3ccccc3)C2)n(C)n1 (centres unmarked) | -46
CC(C)Nc1nnc(SC(C)C(=O)N(C)C2CCCCC2)s1 (centres unmarked) | 9.69
O=S(=O)(c1ccc(Cl)cc1)N1CCC(N2CCCCCC2)CC1 | -49.9
Cc1[nH]c(=O)[nH]c(=O)c1S(=O)(=O)N1CCC(C(=O)N2CCN(Cc3ccccc3)CC2)CC1 | 13.2
Cc1ccc(C)c2[nH]c(=O)c(CCNC(=O)c3ccc4c(c3)OCO4)cc12 | 9.6
Clc1ccc(-c2n[nH]c3c2CCC3)c(Cl)c1 | 16.2
COC(=O)c1ccc(CSc2nc3cc(Cl)ccc3s2)o1 | 9.32
NC(=O)CC(NC(=O)Cc1cccc2ccccc12)c1ccc(NC2CC3CCC2C3)c([N+](=O)[O-])c1 (centres unmarked) | 3.15
Cc1ccc(C(=O)N/N=C\c2ccncc2)s1 | 11.3
O=c1oc2ccccc2cc1-c1nc(-c2ccccc2)no1 | -5.23

SMILES | hERG current change (%, negative = inhibition) at 10uM [%]
CC1CN(C(=O)C2CCCCC2)C(C)CN1C(=O)C1CCCCC1 (centres unmarked) | 15.1
O=C(O)/C=C/C(=O)N1CCN(c2cccc(Cl)c2)CC1 | 8.61
COC(=O)c1c(C)[nH]c(C)c1-c1ccc(C)cc1 | 10.5
COc1ccc2c(c1)c(=O)oc1c(C)c(OCc3ccc(C(=O)O)cc3)ccc12 | 2.39
Cc1ccc(OCC(=O)NNC(=S)NC(=O)C(C)(C)C)c(Br)c1 | 25.9
O=C(NCCc1ccc(Cl)cc1)c1ccc(OCC2CCCO2)cc1 (centres unmarked) | 15.7
COc1ccc(CCC(C)NCCc2ccc(Cl)cc2Cl)cc1 (centres unmarked) | -71.8
CN(C)CCNc1oc(COc2cccc(Cl)c2)nc1C#N | -16.1
O=C(OCCCOc1ccc(F)cc1)c1ccc(O)cc1O | 8.42
O=C(CN(C(=O)CNC(=O)c1cccs1)c1cccc(F)c1)NC1CCCCC1 | -0.617
O=C(NNc1ncccc1Cl)c1c(Cl)cccc1Cl | 4
COc1ccc(CCNCC2C(Oc3ccc(Cl)cc3)C(=O)N2c2ccccc2C)cc1OC.Cl (centres unmarked) | -41
COc1ccc(CN(C)C(C)C(=O)N(C)CC(=O)Nc2ccc(C)cc2)cc1F (centres unmarked) | -57.1
Cc1ccc(SCc2ccc(C(=O)Nc3cccc([N+](=O)[O-])c3C)cc2)cc1 | 11.7
CC(C)c1ccc(OCC(=O)N(Cc2ccccc2)c2ccccn2)cc1 | 5.62
CCOc1ccc(C(CC(=O)O)NC(=O)COc2ccc3ccccc3c2)cc1OC (centres unmarked) | 18.8
COc1ccc(CCNS(=O)(=O)c2ccc(-n3cnnn3)cc2)cc1OC | -26
Cc1cc(C)n2nc(-c3ccco3)nc2n1 | 1.34
C=CCN(c1ccc(C(=O)Nc2ccc3c(c2)OCO3)cc1)S(C)(=O)=O | 5.79
COc1ccc(C(=O)O/N=C(/c2ccccc2)c2ccncc2)cc1OC | 16.7
